Measured values published in PubChem BioAssay AID588855 (National Center for Advancing Translational Sciences (NCATS), 2011).
The whole screen tested about 410,000 compounds, of which about 5,000 (1.2%) were called active. The inconclusive results got no clear call from the source; some entries with a clear call stand among them for comparison. Calls follow the shape of the dose curve; as a rule, active = well fitted inhibition curve with a large enough effect; inconclusive = small, poorly fitted or top-dose-only effect; inactive = no such curve, though single readings can be large or run the other way. Potencies of inconclusive entries are doubtful fits and often do not repeat.

assay: qHTS for Inhibitors of TGF-b; conditions: HepG2 CAGA-GFP TGF-b/SMAD3 reporter, GFP fluorescence, 18 h, TGF-beta stimulated, 500 pg/mL final; series mostly up to 46.1 µM; also: nearly all actives have a fitted effect of over 65% in size
Summary of the method: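 HEPG2 CAGA-GFP, 1000 cells/well; 2 h settle, 37 C; cpd via pin tool; TGF-b 500 pg/mL final; 18 h, 37 C; GFP imaging ex488/em500-530; %Activity normalised to -TGF-b and +DMSO controls; CRC fit, curve class.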
Potency is read from the fitted curve at half-maximal effect; tags tell the direction and shape of the fitted curve.

| SMILES | Potency |
| --- | --- |
| COc1ccc(C(=O)NCc2ccc(N3CCN(C(=O)OC(C)(C)C)CC3)cc2)cc1 | inconclusive: 35.5 µM [inhibitor, single point] |
| CC(C)(C)OC(=O)NCCCCCNC(=O)c1nc[nH]c1C(=O)NCc1ccccc1 | inconclusive: 11.2 µM [inhibitor, partial curve, poor fit] |
| COCCNC(=S)N/N=C(\C)c1ccc(OC)cc1 | inconclusive: 28.2 µM [inhibitor, single point] |
| O=C(Nc1ccc(F)c(Cl)c1)c1ccc2sc([C@H]3C[C@H](O)[C@@H](CO)O3)nc2c1 | inconclusive: 5.62 µM [inhibitor, single point] |
| COc1cc2c(cc1NC(=O)Nc1ccccc1)oc1ccccc12 | inconclusive: 14.1 µM [inhibitor, single point] |
| O=C(N/N=C/c1sc(N2CCOCC2)nc1-c1ccccc1)c1ccccc1F | inactive |
| S=C(NCc1ccco1)Nc1cc(Cl)c(Cl)cc1Cl | inconclusive: 28.2 µM [inhibitor, single point] |
| OCCOCCn1c(C(CO)Nc2nc(-c3ccc(Cl)cc3)cs2)nc2ccccc21 (configuration not stated) | inconclusive: 11.2 µM [inhibitor, partial curve, poor fit] |
| CCc1cc(Cn2nc(-c3ccccc3)cc2C(=O)NCc2cccs2)on1 | inconclusive: 17.8 µM [inhibitor, single point] |
| COc1cccc(C2CC(=O)Nc3c2ccc(C)c3C)c1OC (configuration not stated) | inconclusive: 35.5 µM [inhibitor, single point] |
| COc1cccc(C(=O)Nc2nc(SCc3ccc(Cl)cc3)n[nH]2)c1 | inactive |
| O=c1c2ccc(Cl)cc2nc(-c2cccc(C(F)(F)F)c2)n1O | inconclusive: 35.5 µM [inhibitor, single point] |
| CCOc1ccc(S(=O)(=O)NCCC(=O)N2CC=C(c3ccccc3)CC2)cc1 | inconclusive: 12.6 µM [inhibitor, partial curve] |
| CCOc1c(OC)cccc1C1CC(=O)Nc2cc3c(cc21)OCCO3 (configuration not stated) | inactive |
| O=C(NCC(=O)N1CC(O)CC1C(=O)N1CC(O)CC1C(=O)OCc1ccccc1)OCc1ccccc1 (configuration not stated) | inactive |
| Cc1cccc(C(=O)NCCc2nnc(SCC(=O)Nc3nc(C)cs3)n2C)c1 | inconclusive: 2.51 µM [inhibitor, full curve, poor fit] |
| Cc1cccc(Cn2c(CNS(=O)(=O)c3ccc(C(C)C)cc3)nc3cccnc32)c1 | inconclusive: 7.94 µM [inhibitor, partial curve, poor fit] |
| O=C(COc1ccc(-c2ccccc2)cc1)NNC(=O)NC1CCCCC1 | inactive |
| COc1cccc(C2c3[nH]c4ccccc4c3CCN2CCCn2cccn2)c1 (configuration not stated) | inactive |
| CSc1ccc(C(O)c2ncc(-c3cccc(OCc4ccccc4)c3)[nH]2)cc1 (configuration not stated) | inconclusive: 20 µM [inhibitor, single point] |
| O=C(CCn1c(=O)oc2ccccc21)N1CCc2ccccc21 | inconclusive: 35.5 µM [inhibitor, single point] |
| COc1cccc(C(=O)N2CCCCC2CCN2CCCCC2)c1 (configuration not stated) | inconclusive: 0.112 µM [inhibitor, full curve, poor fit] |
| Cc1ccc(C(C)C)c(Oc2nnnn2-c2ccccc2)c1 | inconclusive: 20 µM [inhibitor, partial curve, poor fit] |

| SMILES | Potency |
| --- | --- |
| NC(Cc1ccc(C(F)(F)F)cc1)c1csc(Nc2cc(Oc3ccccc3)ncn2)n1 (configuration not stated) | inconclusive: 17.8 µM [inhibitor, partial curve, poor fit] |
| Cc1ccc(CN2CCN(/N=C/c3cc([N+](=O)[O-])ccc3Cl)CC2)cc1 | inactive |
| COc1ccc(CN(C(=O)c2ccc3c(c2)OCCO3)C(C(=O)NC2CCCCC2)c2ccc3ncccc3c2)cc1 (configuration not stated) | inactive |
| CCC1(CC)NC(=O)N(CC(=O)OCn2nnc3ccccc3c2=O)C1=O | inconclusive: 14.1 µM [inhibitor, partial curve, poor fit] |
| CC(=O)c1c(C)[nH]c(C(=O)CSc2ccc(F)cc2)c1C | inconclusive: 7.94 µM [inhibitor, partial curve, poor fit] |
| CCCCC1=CC2=CC(=O)C(C)(OC(=O)CC)C(=O)C2=CN1Cc1ccc2c(c1)OCO2 (configuration not stated) | inactive |
| CN(Cc1ccccc1)CC(O)COc1ccc(CNCCc2cccnc2)cc1 (configuration not stated) | inactive |
| CCN1C[C@@H]2[C@@H]3C(=O)N(Cc4ccccc4)C(=O)[C@@H]3[C@](Cc3ccccc3)(C1=O)N2C(=O)c1ccc(C(C)(C)C)cc1 | inactive |
| CCN1C(=O)[C@H]2[C@@H](c3ccc(C)cc3)N3C(=O)N(c4cccc(Cl)c4)C(=O)[C@@]3(Cc3ccc(Cl)cc3)[C@H]2C1=O | inconclusive: 10 µM [inhibitor, partial curve, poor fit] |
| COC(=O)c1sccc1NC(=O)c1cccc(OC)c1 | inactive |
| CCc1cccc2c(C(=O)COC(=O)c3nccnc3N)c[nH]c12 | inconclusive: 0.631 µM [inhibitor, full curve, poor fit] |
| COc1ccc(NC(C)=O)cc1NC(=O)C1(c2cccs2)CCOCC1 | inactive |
| Cc1ccc(NC(=O)c2ccc(OCc3c(C)noc3C)cc2)c(C)c1 | inactive |
| CCC1CCCCN1CCCNC(=O)Cn1nc(C)n2nc(-c3ccccc3)cc2c1=O (configuration not stated) | inactive |
| NC(Cc1ccc(Cl)cc1)c1csc(Nc2cc(Oc3ccccc3)ncn2)n1 (configuration not stated) | inconclusive: 22.4 µM [inhibitor, single point] |
| O=C(NCCc1ccccc1)c1ccc2c(c1)S(=O)(=O)c1ccccc1C2=O | inconclusive: 5.62 µM [inhibitor, single point] |
| COc1ccc(CNC(=O)C2CCCN(S(=O)(=O)c3ccc4c(ccn4C)c3)C2)c(OC)c1 (configuration not stated) | inconclusive: 20 µM [inhibitor, partial curve, poor fit] |
| CCOC(=O)Cc1cc(OC)c(OC)cc1Cc1cc(OC)c(OC)cc1CC(=O)OCC | inactive |
| CS(=O)(=O)N(CC(=O)Nc1cccc([N+](=O)[O-])c1)c1ccccc1 | inconclusive: 35.5 µM [inhibitor, single point] |
| Cc1ccc([N+](=O)[O-])cc1S(=O)(=O)N(C(=O)c1ccncc1)c1ccc2oc3c(c2c1)CCCC3 | inconclusive: 35.5 µM [inhibitor, single point] |
| O=c1c2ccccc2cnn1Cc1n[nH]c(=S)n1C1CC2CCC1C2 (configuration not stated) | inactive |
| Cc1c(C(=O)N(CCc2ccccc2)Cc2ccccc2)cccc1[N+](=O)[O-] | inconclusive: 17.8 µM [inhibitor, single point] |
| Cc1cc(=O)[nH]c(SCC(=O)N2c3ccccc3CC2C)n1 (configuration not stated) | inconclusive: 35.5 µM [inhibitor, single point] |

| SMILES | Potency |
| --- | --- |
| COc1ccc(NC(=O)CSc2ccc3c(c2)OCCO3)cc1S(N)(=O)=O | inactive |
| O=S(=O)(c1ccc(F)cc1)N(CC(O)Cn1c2ccccc2c2ccccc21)c1ccccc1 (configuration not stated) | inconclusive: 11.2 µM [inhibitor, partial curve, poor fit] |
| COc1cc(NC(=O)c2cc(-c3ccc(F)cc3OC(C)C)n[nH]2)cc(OC)c1OC | inconclusive: 35.5 µM [inhibitor, single point] |
| O=[N+]([O-])c1cc(S(=O)(=O)N2CCOCC2)ccc1NS(=O)(=O)c1ccccc1 | inconclusive: 3.98 µM [inhibitor, single point] |
| C=CCNC(=O)c1ccc(-c2nc3ccccc3nc2-c2ccccc2)cc1 | inactive |
| CCc1ccc(OCCOCC(O)CN2CCN(Cc3ccc(Cl)cc3)CC2)cc1 (configuration not stated) | inconclusive: 35.5 µM [inhibitor, partial curve, poor fit] |
| CCOC(=O)c1c(C)oc2nc(C)nc(NCCc3ccc(OCC)c(OCC)c3)c12 | inconclusive: 15.8 µM [inhibitor, single point] |
| CCc1ccc(CN(C)CC(=O)Nc2ccc3c(c2)CCC3)cc1 | inactive |
| COC(=O)c1ccc(NC(=O)CSc2cn(CC(=O)N3CCCCC3)c3ccccc23)cc1 | active: 5.62 µM |
| Cc1ccc(Nc2nc(-c3ccncc3)cs2)cc1 | inactive |
| Cc1nc(N=Nc2cc(S(=O)(=O)O)c3cc([N+](=O)[O-])cc(S(=O)(=O)O)c3c2)c(COP(=O)(O)O)c(C=O)c1O | inconclusive: 35.5 µM [inhibitor, partial curve, poor fit] |
| Cc1cccc(C)c1NC(=O)CN1CCN(CCCC(c2ccc(F)cc2)c2ccc(F)cc2)CC1 | inconclusive: 14.1 µM [inhibitor, partial curve, poor fit] |
| O=C(Nc1cccc(Cl)c1)C1CCCN(S(=O)(=O)c2ccc(F)cc2)C1 (configuration not stated) | inconclusive: 5.62 µM [inhibitor, single point] |
| O=C(C#Cc1ccccc1)Nc1cccc(F)c1 | active: 3.98 µM |
| O=C(Cn1cncn1)N/N=C/c1cc([N+](=O)[O-])ccc1O | inactive |
| COc1ccc(NC(=O)CN2CCN(CC(=O)Nc3ccccc3F)CC2)c(OC)c1 | inconclusive: 35.5 µM [inhibitor, single point] |
| O=C(NCc1cccnc1)NC(=O)c1ccc(Cl)cc1 | inactive |
| CC1CCN(c2ccc3c(c2)S(=O)(=O)c2cccc(C(=O)NCc4ccc(F)cc4)c2C3=O)CC1 | inactive |
| Cc1ccc(-c2nn(-c3cc(N4CCNCC4)ccc3[N+](=O)[O-])c(=O)c3ccccc23)cc1 | inactive |
| CCCCN(CCO)c1ncnc2sc(-c3ccccc3)cc12 | inconclusive: 35.5 µM [inhibitor, single point] |
| O=C1C2CC3N1CCC31c3ccccc3-n3c1c2ccc3=O (configuration not stated) | inactive |
